# Laboratory results reported in the supplement of paper PMC8728848.
# The list shows a part of the results.
# B1: CvGal2 (Crassostrea virginica) (protein)
# chain: MGSSHHHHHHSSGLVPRGSHMRIREAGKRKDTTKVYQIPDGLFPGQQVMLRGRVPWGSKSFSINFSATPRMGEGDILFHLNPRPSEGVCIRNALLNGSWGAEEKWQPYFPFDDGRSFSVKIEVTNDAFRTFVNGRPFVDFLHRTDFRAGKYLTLREGAEYYDVIFQSKPNIPLTTAIHNGMRIGKTIRIRGMCTAQDGFAINFNDNRNNIYFHFNARPAQRTVVRNSYFGSWGNEETAISKEFPFYPFLYFYASFVCMEDKFAVYVNDEHFIDFAHRGNPNNISVLQIKGSVNVLDTECLEPMGEDAMTEVDSGLENGDLFVLNGLMTERGKTFAVNFLNGFTENDDIALHFNPRKSTGEVVLNSRYGGAWQSEEKVALPGVFWSNRPLQVKVETKRNKFKIYVNGVDLAKYKIRGNVEDVHAVQVKGDVFLLETLLLKRLMKPVWERLTGGIRPGTWVTLQGTPKKNWQQFVVNFALDDTLDGDIAFHFNVRRGARQVVRNHRQSGAWGREETVTPFFAFDSEATFEIVFFVKEEKFLIYFNGKLFFEFVHRVPVERITHIYMDGDCNFYEPEVVI
# Tests used:
# Experiment in all cases: glycan array binding signal (z-score within array); higher = stronger binding
# Conditions in all cases: glycan notation: IUPAC condensed, linker removed
# [1] = target: GlcNAc(a1-6)Gal(b1-4)GlcNAc
# In short: (§1)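 Columns mapping to the same glycan were averaged after glycan names were converted to IUPAC-condensed notation. The data come from 3228 arrays in the Consortium for Functional Glycomics database, limited to those with an available protein sequence. Binding is reported as a within-array Z-score averaged across arrays of one protein sequence and across linkers.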
# [2] = target: GlcNAc(b1-2)Gal(b1-3)GalNAc
# In short: as §1
# [3] = target: GlcNAc(b1-2)Man(a1-3)[GlcNAc(b1-2)Man(a1-6)]Man(b1-4)GlcNAc(b1-4)GlcNAc
# In short: as §1
# [4] = target: GlcNAc(b1-2)Man(a1-3)[GlcNAc(b1-2)Man(a1-6)]Man(b1-4)GlcNAc(b1-4)[Fuc(a1-6)]GlcNAc
# In short: as §1
# [5] = target: GlcNAc(b1-2)Man(a1-3)[GlcNAc(b1-4)][GlcNAc(b1-2)Man(a1-6)]Man(b1-4)GlcNAc(b1-4)GlcNAc
# In short: as §1
# [6] = target: GlcNAc(b1-2)Man(a1-3)[GlcNAc(b1-4)][GlcNAc(b1-2)Man(a1-6)]Man(b1-4)GlcNAc(b1-4)[Fuc(a1-6)]GlcNAc
# In short: as §1
# [7] = target: GlcNAc(b1-2)[GlcNAc(b1-4)]Man(a1-3)[GlcNAc(b1-2)Man(a1-6)]Man(b1-4)GlcNAc(b1-4)GlcNAc
# In short: as §1
# [8] = target: GlcNAc(b1-2)[GlcNAc(b1-4)]Man(a1-3)[GlcNAc(b1-4)][GlcNAc(b1-2)Man(a1-6)]Man(b1-4)GlcNAc(b1-4)GlcNAc
# In short: as §1
# [9] = target: GlcNAc(b1-2)[GlcNAc(b1-4)]Man(a1-3)[GlcNAc(b1-4)][GlcNAc(b1-2)[GlcNAc(b1-6)]Man(a1-6)]Man(b1-4)GlcNAc(b1-4)GlcNAc
# In short: as §1
# [10] = target: GlcNAc(b1-2)[GlcNAc(b1-4)]Man(a1-3)[GlcNAc(b1-4)][GlcNAc(b1-2)[GlcNAc(b1-6)]Man(a1-6)]Man(b1-4)GlcNAc(b1-4)[Fuc(a1-6)]GlcNAc
# In short: as §1
# [11] = target: GlcNAc(b1-2)[GlcNAc(b1-6)]Man(a1-6)[GlcNAc(b1-2)Man(a1-3)]Man(b1-4)GlcNAc(b1-4)GlcNAc
# In short: as §1
# [12] = target: GlcNAc(b1-2)[GlcNAc(b1-6)]Man(a1-6)[GlcNAc(b1-2)Man(a1-3)]Man(b1-4)GlcNAc(b1-4)[Fuc(a1-6)]GlcNAc
# In short: as §1
# [13] = target: GlcNAc(b1-2)[GlcNAc(b1-6)]Man(a1-6)[GlcNAc(b1-4)][GlcNAc(b1-2)Man(a1-3)]Man(b1-4)GlcNAc(b1-4)GlcNAc
# In short: as §1
# [14] = target: GlcNAc(b1-3)Fuc
# In short: as §1
# [15] = target: GlcNAc(b1-3)Gal
# In short: as §1
# [16] = target: GlcNAc(b1-3)Gal(b1-3)GalNAc
# In short: as §1
# [17] = target: GlcNAc(b1-3)Gal(b1-4)Glc
# In short: as §1
# [18] = target: GlcNAc(b1-3)Gal(b1-4)GlcNAc
# In short: as §1
# [19] = target: GlcNAc(b1-3)Gal(b1-4)GlcNAc(b1-2)Man(a1-3)[GlcNAc(b1-3)Gal(b1-4)GlcNAc(b1-2)Man(a1-6)]Man(b1-4)GlcNAc(b1-4)GlcNAc
# In short: as §1
# [20] = target: GlcNAc(b1-3)Gal(b1-4)GlcNAc(b1-2)Man(a1-3)[GlcNAc(b1-3)Gal(b1-4)GlcNAc(b1-2)Man(a1-6)]Man(b1-4)GlcNAc(b1-4)[Fuc(a1-6)]GlcNAc
# In short: as §1
# [21] = target: GlcNAc(b1-3)Gal(b1-4)GlcNAc(b1-2)[GlcNAc(b1-3)Gal(b1-4)GlcNAc(b1-6)]Man(a1-6)[GlcNAc(b1-3)Gal(b1-4)GlcNAc(b1-2)Man(a1-3)]Man(b1-4)GlcNAc(b1-4)GlcNAc
# In short: as §1
# [22] = target: GlcNAc(b1-3)Gal(b1-4)GlcNAc(b1-3)Gal(b1-4)GlcNAc
# In short: as §1
# [23] = target: GlcNAc(b1-3)Gal(b1-4)GlcNAc(b1-3)Gal(b1-4)GlcNAc(b1-2)Man(a1-3)[GlcNAc(b1-3)Gal(b1-4)GlcNAc(b1-3)Gal(b1-4)GlcNAc(b1-2)Man(a1-6)]Man(b1-4)GlcNAc(b1-4)GlcNAc
# In short: as §1
# [24] = target: GlcNAc(b1-3)Gal(b1-4)GlcNAc(b1-3)Gal(b1-4)GlcNAc(b1-2)Man(a1-3)[GlcNAc(b1-3)Gal(b1-4)GlcNAc(b1-3)Gal(b1-4)GlcNAc(b1-2)Man(a1-6)]Man(b1-4)GlcNAc(b1-4)[Fuc(a1-6)]GlcNAc
# In short: as §1
# [25] = target: GlcNAc(b1-3)Gal(b1-4)GlcNAc(b1-3)Gal(b1-4)GlcNAc(b1-2)[GlcNAc(b1-3)Gal(b1-4)GlcNAc(b1-3)Gal(b1-4)GlcNAc(b1-6)]Man(a1-6)[GlcNAc(b1-3)Gal(b1-4)GlcNAc(b1-3)Gal(b1-4)GlcNAc(b1-2)Man(a1-3)]Man(b1-4)GlcNAc(b1-4)[Fuc(a1-6)]GlcNAc
# In short: as §1
# [26] = target: GlcNAc(b1-3)Gal(b1-4)GlcNAc(b1-3)Gal(b1-4)GlcNAc(b1-3)Gal(b1-4)GlcNAc(b1-2)Man(a1-3)[GlcNAc(b1-3)Gal(b1-4)GlcNAc(b1-3)Gal(b1-4)GlcNAc(b1-3)Gal(b1-4)GlcNAc(b1-2)Man(a1-6)]Man(b1-4)GlcNAc(b1-4)GlcNAc
# In short: as §1
# [27] = target: GlcNAc(b1-3)Gal(b1-4)GlcNAc(b1-3)Gal(b1-4)GlcNAc(b1-3)Gal(b1-4)GlcNAc(b1-2)Man(a1-3)[GlcNAc(b1-3)Gal(b1-4)GlcNAc(b1-3)Gal(b1-4)GlcNAc(b1-3)Gal(b1-4)GlcNAc(b1-2)Man(a1-6)]Man(b1-4)GlcNAc(b1-4)[Fuc(a1-6)]GlcNAc
# In short: as §1
# [28] = target: GlcNAc(b1-3)Gal(b1-4)GlcNAc(b1-3)Gal(b1-4)GlcNAc(b1-3)Gal(b1-4)GlcNAc(b1-2)[GlcNAc(b1-3)Gal(b1-4)GlcNAc(b1-3)Gal(b1-4)GlcNAc(b1-3)Gal(b1-4)GlcNAc(b1-6)]Man(a1-6)[GlcNAc(b1-3)Gal(b1-4)GlcNAc(b1-3)Gal(b1-4)GlcNAc(b1-3)Gal(b1-4)GlcNAc(b1-2)Man(a1-3)]Man(b1-4)GlcNAc(b1-4)[Fuc(a1-6)]GlcNAc
# In short: as §1
# [29] = target: GlcNAc(b1-3)Gal(b1-4)GlcNAc(b1-3)Gal(b1-4)GlcNAc(b1-3)Gal(b1-4)GlcNAc(b1-3)Gal(b1-4)GlcNAc(b1-2)Man(a1-3)[GlcNAc(b1-3)Gal(b1-4)GlcNAc(b1-3)Gal(b1-4)GlcNAc(b1-3)Gal(b1-4)GlcNAc(b1-3)Gal(b1-4)GlcNAc(b1-2)Man(a1-6)]Man(b1-4)GlcNAc(b1-4)GlcNAc
# In short: as §1
# [30] = target: GlcNAc(b1-3)Gal(b1-4)GlcNAc(b1-3)Gal(b1-4)GlcNAc(b1-3)Gal(b1-4)GlcNAc(b1-3)Gal(b1-4)GlcNAc(b1-2)Man(a1-3)[GlcNAc(b1-3)Gal(b1-4)GlcNAc(b1-3)Gal(b1-4)GlcNAc(b1-3)Gal(b1-4)GlcNAc(b1-3)Gal(b1-4)GlcNAc(b1-2)Man(a1-6)]Man(b1-4)GlcNAc(b1-4)[Fuc(a1-6)]GlcNAc
# In short: as §1
binder,measurement,setting,value
B1,glycan array binding signal (z-score),[1],-0.343
same,glycan array binding signal (z-score),[2],-0.334
same,glycan array binding signal (z-score),[3],-0.325
same,glycan array binding signal (z-score),[4],-0.336
same,glycan array binding signal (z-score),[5],-0.335
same,glycan array binding signal (z-score),[6],-0.332
same,glycan array binding signal (z-score),[7],-0.336
same,glycan array binding signal (z-score),[8],-0.339
same,glycan array binding signal (z-score),[9],-0.329
same,glycan array binding signal (z-score),[10],-0.32
same,glycan array binding signal (z-score),[11],-0.338
same,glycan array binding signal (z-score),[12],-0.332
same,glycan array binding signal (z-score),[13],-0.33
same,glycan array binding signal (z-score),[14],-0.328
same,glycan array binding signal (z-score),[15],-0.333
same,glycan array binding signal (z-score),[16],-0.316
same,glycan array binding signal (z-score),[17],0.167
same,glycan array binding signal (z-score),[18],-0.334
same,glycan array binding signal (z-score),[19],-0.303
same,glycan array binding signal (z-score),[20],-0.193
same,glycan array binding signal (z-score),[21],0.452
same,glycan array binding signal (z-score),[22],-0.343
same,glycan array binding signal (z-score),[23],-0.19
same,glycan array binding signal (z-score),[24],-0.189
same,glycan array binding signal (z-score),[25],0.079
same,glycan array binding signal (z-score),[26],-0.042
same,glycan array binding signal (z-score),[27],-0.215
same,glycan array binding signal (z-score),[28],0.352
same,glycan array binding signal (z-score),[29],-0.16
same,glycan array binding signal (z-score),[30],-0.163
